Out of some 220,000 compounds screened, about 16,000 (7.3%) were called active. Inconclusive means that the source gave no clear call. Such entries were picked first, then a sample of the others. The call rests on the fitted dose curve; in most records, active means well fitted inhibition curve with a large enough effect (not every such curve was filed as active); inconclusive means small, poorly fitted or top-dose-only effect, or another doubt; inactive means no such curve, though single readings can be large or run the other way. Potencies of inconclusive entries are left out as doubtful fits.
Each compound was assayed against Aldehyde dehydrogenase 1A1 (Homo sapiens) (UniProt P00352) (assay: qHTS Assay for Inhibitors of Aldehyde Dehydrogenase 1 (ALDH1A1)). Conditions: Purified ALDH1A1, NADH fluorescence, propionaldehyde substrate; series mostly up to 75.3 µM.
Potency means the concentration at half of the fitted maximal effect; tags describe the fitted curve by direction and shape.

Chain of UniProt P00352 (P00352 whole entry, looked up): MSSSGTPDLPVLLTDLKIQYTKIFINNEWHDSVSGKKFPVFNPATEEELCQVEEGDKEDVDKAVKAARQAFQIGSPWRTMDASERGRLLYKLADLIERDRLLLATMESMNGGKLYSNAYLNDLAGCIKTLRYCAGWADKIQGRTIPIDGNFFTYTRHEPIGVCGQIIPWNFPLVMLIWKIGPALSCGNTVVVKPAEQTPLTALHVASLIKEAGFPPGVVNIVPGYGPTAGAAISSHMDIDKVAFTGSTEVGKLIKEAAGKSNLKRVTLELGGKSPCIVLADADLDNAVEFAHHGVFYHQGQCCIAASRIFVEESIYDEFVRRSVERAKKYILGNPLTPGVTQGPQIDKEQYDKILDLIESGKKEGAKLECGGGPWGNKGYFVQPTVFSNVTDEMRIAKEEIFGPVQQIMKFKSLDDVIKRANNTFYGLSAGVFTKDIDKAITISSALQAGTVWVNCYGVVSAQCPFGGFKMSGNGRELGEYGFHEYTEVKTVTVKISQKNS

Structure (SMILES)	Potency
Cc1ccn2cc(CCNC(=O)CC(C)(C)C)nc2c1	inconclusive [inhibitor, single point]
COC(=O)c1ccncc1N	inconclusive [inhibitor, partial curve]
C/C(=N\Nc1nc(N2CCOCC2)nc(N2CCOCC2)n1)c1ccc([N+](=O)[O-])cc1	inactive
Cc1cccc(NC(=O)Nc2nnc(-c3ccccc3)o2)c1	inactive
Cc1cccc(C(=O)Nc2ccc(NC(=O)Cc3ccc(Cl)cc3)cc2)c1	inconclusive [inhibitor, single point]
Cc1ccc(-c2onc3ccc(C4OCCO4)cc23)cc1	inactive
Nc1nnn(Cc2ccccc2)n1	inactive
COC(=O)CCCCC1SCC(NC(=O)OC)C1NC(=O)OC (stereo not drawn)	inactive
COc1ccc(N=C(C)C2=C(O)CSC2=O)cc1	inconclusive [inhibitor, single point]
CCCN(CCC)CC(O)CN(c1ccccc1)S(=O)(=O)c1ccc(C)cc1 (stereo not drawn)	inactive
CC1CCCC(C)N1C(=O)CSc1nnc(NC(=O)Cc2cccs2)s1 (stereo not drawn)	inconclusive [inhibitor, partial curve, poor fit]
CC1CCCCN1c1nnc(NC(=O)c2cc(-c3ccc(Br)cc3)on2)s1 (stereo not drawn)	inconclusive [inhibitor, single point]
CCOC(=O)c1[nH]c(Cc2[nH]c(C(=O)OCC)c(C)c2CCC(=O)OC)c(CCC(=O)OC)c1C	inactive
CC1=NN(c2ccccc2)C(=O)/C1=C/c1c(O)n(-c2ccc(F)c(Cl)c2)[nH]c1=O	active: 14.1 µM
O=C(CCCN1C(=O)/C(=C/c2ccccc2)SC1=S)Nc1ccccc1O	inactive
Cc1[nH]nc(N=CC2=C(O)CC(C)(C)CC2=O)c1-c1ccccc1	active: 28.2 µM
COc1c2c(cc3c1C(CC(=O)c1c(O)c(OC)c4occc4c1OC)[N+](C)(C)CC3)OCO2 (stereo not drawn)	inactive
CCn1c(SCC(=O)c2c[nH]c3ccccc23)nc2cc(S(=O)(=O)N3CCOCC3)ccc21	inconclusive [inhibitor, full curve]
COc1ccc(C2Nc3ccc4ccccc4c3-c3c2c(=O)oc2ccccc32)cc1 (stereo not drawn)	inconclusive [inhibitor, full curve]
Cc1ccc(-n2nc(C)c3c2OC(N)=C(C#N)C3c2ccc(C)o2)cc1 (stereo not drawn)	active: 1.58 µM
C=CCOc1cccc(C2/C(=C(/O)c3ccc(Cl)cc3)C(=O)C(=O)N2CCN2CCOCC2)c1 (stereo not drawn)	inconclusive [inhibitor, single point]
CC(C)CN(CC(C)C)C1=N/C(=C\c2ccco2)C(=O)N1c1ccccc1	active: 12.6 µM
CC(C)C(=O)NC(=S)Nc1ccccc1N1CCN(C(=O)c2ccc(Cl)cc2)CC1	inactive
O=C(Nc1ccc(-c2cnco2)cc1)c1ccccc1	inconclusive [inhibitor, single point]

Structure (SMILES)	Potency
O=C(c1cccnc1)n1nc(-c2ccco2)nc1NCc1cccs1	inconclusive [inhibitor, single point]
CNC(=S)Nc1ccc(C)c(NC(=S)NC)c1	inconclusive [inhibitor, single point]
Cn1c(=O)c2c(nc(CN3CCN(C(=O)c4ccco4)CC3)n2Cc2ccc(Cl)cc2)n(C)c1=O	active: 14.1 µM
COc1cnc(-c2ccccn2)nc1Sc1ccccc1Cl	inconclusive [inhibitor, partial curve]
Clc1nc(CN2CCOCC2)nc2sc3c(c12)CCC3	inactive
CCOC(=O)c1ccc(NC(=O)Nc2cc(C)cc(C)n2)cc1	inactive
Cc1ccccc1NC(=O)Cn1c(=O)sc2ccccc21	inactive
Cc1ccc(NC(=O)CN2C(=O)S/C(=C\c3cccn3-c3cccc(C(=O)O)c3)C2=O)cc1C	inactive
Cc1cc(C)cc(NC(=O)C2CCCN(c3nc(C)cc(C)n3)C2)c1 (stereo not drawn)	inactive
Cc1ccc(S(=O)(=O)N2CCN(S(=O)(=O)N3CCOCC3)CC2)c(C)c1	active: 12.6 µM
Cc1ccc(NC(=S)NCC2CCCO2)c(OC(F)F)c1 (stereo not drawn)	inconclusive [inhibitor, single point]
COc1cc(CN2CCC(C(=O)NC3CCCC3)CC2)cc(Br)c1O	inconclusive [inhibitor, single point]
N#CC(C(=O)Nc1ccccc1)=C1Nc2ccccc2N1	inconclusive [inhibitor, single point]
Cc1ccc2nc(N3CCN(C=O)CC3)nc(-c3ccccc3)c2c1	inconclusive [inhibitor, single point]
CCC1CCCN1Cn1cnc2c([nH]c3ccccc32)c1=O (stereo not drawn)	inconclusive [inhibitor, partial curve]
COc1ccc(/C=N/NC(=O)c2ccccc2Cl)cc1CSc1nc2ccccc2s1	inconclusive [inhibitor, single point]
CCc1cccc(C)c1NC(=S)N(CCN(C)C)C(C)c1cccnc1 (stereo not drawn)	inactive
NC(=O)c1ccc(Nc2nnc(-c3ccc(O)cc3)c3ccccc23)cc1	inconclusive [inhibitor, single point]
Cc1ccc(C(C)(C)C)cc1S(=O)(=O)Nc1cccc(S(=O)(=O)NC2=NCCC2)c1	inconclusive [inhibitor, single point]
Cn1ccnc1Sc1ccc(C=O)cc1[N+](=O)[O-]	inconclusive [inhibitor, single point]
O=C(CN1CCN(c2ccccc2F)CC1)c1ccc2cc[nH]c2c1	inconclusive [inhibitor, partial curve]
N#Cc1c(-c2ccccc2)c(C#N)c2nc3ccccc3n2c1N	inconclusive [inhibitor, full curve]
Cn1c(-c2cc(Cl)ccc2O)nc2c1c(=O)[nH]c(=O)n2Cc1ccccc1	inconclusive [inhibitor, partial curve]
C/C(=N\NC(=O)c1ccccc1)c1cc2cc([N+](=O)[O-])ccc2oc1=O	inactive

Source: PubChem BioAssay AID1030 (National Center for Advancing Translational Sciences (NCATS), 2008)
